The campaign covered roughly 45,000 compounds. About 65 (0.1%) were called active. Calls come from the whole dose curve; as a rule, active = well fitted activation curve with a large enough effect; inconclusive = small, poorly fitted or top-dose-only effect; inactive = no such curve, though single readings can be large or run the other way. The list shows a part of the results.

This assay concerns the target Galactocerebrosidase (Homo sapiens) (UniProt P54803). As to the kind of experiment: A Novel Cell-Based Assay to Identify Small Molecules for B -Galactocerebrosidase. Note: 0% is about no effect; nearly all actives have a fitted effect of over 65% in size. Particulars: 145M-Twi-hGALC-G270D cells, HMU-beta-Gal fluorescence, 48 h; series mostly up to 57.5 µM; activation: at the top concentration. A digest of the protocol: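 qHTS, 1536-well; 145M-Twi-hGALC-G270D cells (WT line also made) in DMEM/F12 + 10% FBS; compound incubation on live cells; HMU-β-gal 0.1 mM final, pH 5.2, NaTC; carbonate stop; fluorescence increase = enhanced residual activity.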
Sequence of UniProt P54803 (P54803 whole entry, looked up): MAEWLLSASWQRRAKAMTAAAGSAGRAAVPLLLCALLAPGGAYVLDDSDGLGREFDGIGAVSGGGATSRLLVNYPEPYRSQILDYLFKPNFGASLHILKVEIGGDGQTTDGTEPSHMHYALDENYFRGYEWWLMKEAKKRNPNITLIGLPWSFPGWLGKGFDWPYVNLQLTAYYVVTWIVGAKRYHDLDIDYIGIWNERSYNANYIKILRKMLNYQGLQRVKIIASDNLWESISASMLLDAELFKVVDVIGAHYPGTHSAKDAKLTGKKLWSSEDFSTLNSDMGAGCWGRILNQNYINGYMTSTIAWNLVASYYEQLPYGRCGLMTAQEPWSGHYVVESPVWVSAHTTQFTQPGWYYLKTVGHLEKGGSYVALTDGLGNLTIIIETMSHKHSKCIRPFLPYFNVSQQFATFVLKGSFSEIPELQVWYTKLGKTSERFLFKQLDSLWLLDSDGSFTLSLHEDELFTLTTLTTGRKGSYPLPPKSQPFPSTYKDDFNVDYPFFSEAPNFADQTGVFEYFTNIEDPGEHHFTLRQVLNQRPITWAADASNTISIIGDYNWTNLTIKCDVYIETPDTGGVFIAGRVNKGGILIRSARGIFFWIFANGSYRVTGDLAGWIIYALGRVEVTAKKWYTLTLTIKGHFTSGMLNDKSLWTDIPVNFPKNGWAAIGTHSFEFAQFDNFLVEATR
Take `Cc1ccc(S(=O)(=O)c2cnc(SCC(=O)Nc3ccc4c(c3)OCCO4)[nH]c2=O)cc1C`: the “activation” value is inactive: -11.5%.

For the compound `COC(=O)CN1C(C(=O)c2ccccc2)=C(OC(=O)c2ccc(F)cc2)c2ccccc2S1(=O)=O`, the “activation” value is inactive: -3.45%.

Take `CCN(C(=O)CSc1nnc(-c2cc3occc3n2C)n1-c1ccccc1C)c1cccc(C)c1`: the “activation” value was inactive: -2.38%.

As for `CCCS(=O)c1ccc2nc(NC(=O)OC)[nH]c2c1` (stereo not given), the “activation” value was inactive: 9.54%.

For the compound `COc1ccc(-c2cn3c(n2)sc2cc(C(=O)NCCCN4CCCCC4)ccc23)cc1`, the “activation” value is inactive: -1.19%.

On to `CCOc1ccccc1NC(=O)Cn1c(=O)n(-c2ccccc2)c(=O)c2c1c1cc(C)ccc1n2C`, for which the “activation” value was inactive: 5.29%.

As to `COc1ccc(NC(=O)CN2C(=O)CCc3cc(S(=O)(=O)N4CCOCC4)ccc32)c(OC)c1`, the “activation” value is inactive: -5.15%.

Turning to `Cc1nn(CCCC(=O)Nc2cc(C(F)(F)F)ccc2Cl)c(=O)c2c1sc1ccccc12`, the “activation” value is inactive: -4.26%.

Take `CCc1nn(CC(=O)N(CC)Cc2ccccc2)c(=O)c2cc3occc3n12`: the “activation” value is inactive: -19.2%.

On to `CCN(CC)C(=O)c1cnn(-c2ccc(F)cc2)c1-n1cccc1`, for which the “activation” value was inactive: -22%.

For the compound `COc1ccc(N2CCN(C(=O)c3ccc4c(=O)n(CCc5ccc(OC)c(OC)c5)c(=O)[nH]c4c3)CC2)cc1`, the “activation” value was inactive: -9.76%.

For `CCNC(=O)c1c(C)oc2ncn(C)c(=O)c12`, the “activation” value is inactive: 5.2%.

With `CCc1ccc(CNC(=O)CSc2cc(=O)n(CC)c3ccccc23)cc1`, the “activation” value is inactive: -16.7%.

Regarding `Cc1ccc(-c2cn3c(n2)sc2cc(C(=O)NC4CCCc5ccccc54)ccc23)cc1` (stereo not given), the “activation” value is inactive: -0.54%.

On to `CCOCCCNC(=O)C1CCN(c2cc(C)nc3c(-c4ccc(Cl)cc4)c(C)nn23)CC1`, for which the “activation” value is inactive: -2.98%.

For `CCc1ccc(NS(=O)(=O)c2ccc3[nH]cc(C(=O)NCc4ccc(C)cc4)c(=O)c3c2)cc1`, the “activation” value was inactive: 4.37%.

Take `CC(=O)O[C@@H]1C(=O)O[C@@H]2[C@H]1OC(=O)[C@@H]2OC(C)=O`: the “activation” value is inactive: -4.37%.

With `CCOc1ccc(-n2c(=O)c3c4c(sc3n(Cc3cccc(C)c3)c2=O)CCCC4)cc1`, the “activation” value is inactive: -8.64%.

In the case of `Clc1ccc2nc(Nc3ccccc3Cl)nc(-c3ccccc3)c2c1`, the “activation” value is inactive: -1.24%.

As to `COc1ccc(NC(=O)Cn2c(=O)n(CC(=O)NCCc3ccccc3)c(=O)c3ccccc32)cc1`, the “activation” value was inactive: -6.36%.

For `CC/C(=C(/CC)c1ccc(O)cc1)c1ccc(O)cc1`, the “activation” value was inactive: 3.92%.

Regarding `COc1ccc(CNC(=O)c2cc3c(-c4ccccc4F)nn(C)c3s2)cc1`, the “activation” value was inactive: -9.03%.

On to `O=C(Nc1ccc(Br)cc1F)C(NS(=O)(=O)c1cccc2nsnc12)c1ccccc1` (stereo not given), for which the “activation” value was inactive: -9.93%.

As to `Cc1ccc(NC(=O)c2cc3c(-c4ccccc4)nn(-c4ccccc4)c3s2)cc1`, the “activation” value is inactive: -11.1%.

With `COc1ccc(OC)c(NC(=O)c2c(NCc3ccc(OC)c(OC)c3)sc3c2CCC3)c1`, the “activation” value was inactive: -4.75%.

In the case of `CCOc1ccccc1NC(=O)Nc1cc(C(=O)NCc2ccc(C)cc2)ccc1N1CCCC1`, the “activation” value is inactive: -11.3%.

For the compound `Cc1ccccc1Cn1c2ccccc2c2cnn(CC(=O)NCCCc3ccccc3)c(=O)c21`, the “activation” value is inactive: -18.1%.

Regarding `O=C(Cn1c(-c2cccs2)cc2cc(F)ccc21)N1CCN(c2cccc(Cl)c2)CC1`, the “activation” value is inactive: -11.9%.

On to `CSc1ccc2c(c1)N(CCC1CCCCN1C)c1ccccc1S2` (stereo not given), for which the “activation” value was inactive: -41.8%.

Turning to `COc1cccc(Cc2nc3ccccc3nc2SCC(=O)N2CCN(c3ccccc3)CC2)c1`, the “activation” value was inactive: -2.59%.

As to `O=C(Nc1cc(-c2nc3ccccc3o2)ccc1Cl)c1ccc(Br)o1`, the “activation” value was inactive: 5.98%.

For `COc1cc(-c2noc(-c3ccc(N(C)C)c([N+](=O)[O-])c3)n2)cc(OC)c1OC`, the “activation” value was inactive: 1.68%.

On to `Cc1ccc(CCNc2nc3c(S(=O)(=O)c4ccccc4)nnn3c3ccsc23)cc1`, for which the “activation” value was inactive: -23.4%.

For the compound `Cc1c(C(=O)NCc2ccccc2)sc2nc[nH]c(=O)c12`, the “activation” value was inactive: -8.9%.

Turning to `CCOc1ccc(Nc2sc(C(=O)c3ccc4c(c3)OCO4)c(N)c2S(=O)(=O)c2ccc(C)cc2)cc1`, the “activation” value is inactive: -9.12%.

`COc1ccccc1CNC(=O)CSc1cc(=O)n(C)c2ccccc12`: the “activation” value was inactive: -17.5%.

Consider `COc1ccc(-c2cc(C(F)(F)F)nc(NCc3ccc(Cl)cc3)n2)cc1`, for which the “activation” value was inactive: 8.26%.

`Cn1nc(C(=O)N2CCN(c3ccc(Cl)cc3)CC2)c2c1-c1ccccc1S(=O)(=O)C2`: the “activation” value was inactive: -14.3%.

As for `COc1ccc2c(c1)c1c(c(=O)n(-c3ccc(F)c(Cl)c3)c(=O)n1CC(N)=O)n2C`, the “activation” value was inactive: -6.9%.

As for `CCOc1ccc(-c2c(C)nn3c(C)c(C(=O)NCCc4ccccc4)cnc23)cc1OCC`, the “activation” value was inactive: -24.2%.

With `CCC1CN(C(=O)Nc2cccc(OC)c2)c2ccccc2O1` (stereo not given), the “activation” value is inactive: -1.23%.

As to `CC(=O)Nc1ccc(S(=O)(=O)NC2(C(F)(F)F)NC(=O)N(c3ccccc3F)C2=O)cc1` (stereo not given), the “activation” value was inactive: -14.7%.

`COc1cccc2c1cc1c(=O)n(CC(=O)O)nc(C)n12`: the “activation” value is inactive: -5.48%.

Regarding `COc1ccc(-n2c(=O)c3ccc(C(=O)NCc4ccc(C)cc4)cc3n(Cc3cccc(Cl)c3)c2=O)cc1`, the “activation” value was inactive: -11.7%.

Regarding `Cc1ccc2c(c1)cc1c(=O)n(Cc3ccc(Cl)cc3)nc(C)n12`, the “activation” value was inactive: -1.75%.

As for `COc1cccc(-c2cc(C(=O)Nc3ccc(Br)c(C)c3)[nH]n2)c1`, the “activation” value is inactive: -20.3%.

As for `CCOc1ccc(C2C(C(=O)Nc3ccccc3OC)=C(C)Nc3c(C(=O)Nc4cccc(C)c4)cnn32)cc1` (stereo not given), the “activation” value was inactive: -11.7%.

As for `CC1CCCCN1S(=O)(=O)c1cc2c(=O)nc3ccccn3c2cc1Cl` (stereo not given), the “activation” value was inactive: -6.39%.

Regarding `O=C1CC(c2nnc(Cc3cccc(Cl)c3)o2)CN1c1ccccc1` (stereo not given), the “activation” value was inactive: -8.96%.

With `CCn1c(CC2C(=O)Nc3ccccc32)nc2ccccc2c1=O` (stereo not given), the “activation” value is inactive: -13.2%.

Consider `Cc1cccc(C)c1NS(=O)(=O)c1ccc2c(c1)[C@H]1C=CC[C@H]1[C@@H](c1ccc(Cl)cc1)N2`, for which the “activation” value was inactive: -11.8%.

Consider `COc1ccc(CN(Cc2ccco2)C(=O)c2ccccc2F)cc1`, for which the “activation” value is inactive: -15.9%.

As for `CCOC(=O)c1sc(NC(=O)C(C)Sc2nc(-c3ccccc3)cc(C(F)(F)F)n2)c(C(=O)OC)c1C` (stereo not given), the “activation” value is inactive: 3.29%.

In the case of `CCOc1ccc(C(=O)Nc2ccc(-c3nc4cc(C)ccc4o3)cc2)cc1`, the “activation” value was inactive: 14%.

Consider `CCc1nnc2c3ccccc3nc(Nc3ccccc3OC)n12`, for which the “activation” value was inactive: -10.5%.

As for `Cc1cccc(N2CCN(S(=O)(=O)c3ccc4oc(=O)c5ncn(C)c5c4c3)CC2)c1C`, the “activation” value is inactive: -3.51%.

With `O=C(CCCCn1c(=O)c2ccccc2n(CC(=O)Nc2ccccc2)c1=O)NCc1ccccc1Cl`, the “activation” value is inactive: -17.3%.

In the case of `CCN(CC)CCCNC(=O)C1CCN(S(C)(=O)=O)CC1`, the “activation” value is inactive: -12%.

Regarding `Cc1c(C)n(Cc2ccccc2)c2ccc(C(=O)NCc3ccc(OC(C)C)cc3)cc12`, the “activation” value is inactive: 5.18%.

Regarding `COc1ccc(Nc2nc3ccc(Cl)cc3n3nnnc23)cc1OC`, the “activation” value is inactive: -18.8%.

Turning to `Cc1oc(-c2ccc(C(=O)Nc3cccc(C(F)(F)F)c3)cc2)nc1CSc1ccccc1`, the “activation” value is inactive: -14.9%.

For the compound `O=C(Oc1ccccc1Cl)c1cc(-c2ccc3c(c2)OCCO3)on1`, the “activation” value is inactive: -9.17%.

For `CCCC(=O)C1=C(c2ccc(C)cc2)N(C(=O)CCC)n2cnnc2S1`, the “activation” value was inactive: -38.2%.

In the case of `COc1ccc(-c2nc3scc(CCNS(=O)(=O)c4ccc(F)c(C(F)(F)F)c4)n3n2)cc1OC`, the “activation” value is inactive: -10.8%.

Take `COC(=O)c1scc(-c2ccc(C)cc2)c1S(=O)(=O)Nc1cccc(Cl)c1C`: the “activation” value was inactive: -44.8%.

On to `Cc1n[nH]c(C)c1CCc1nc2c3ccccc3nc(SCC(=O)Nc3ccc(F)cc3)n2n1`, for which the “activation” value was inactive: -13.9%.

Regarding `Cc1ccc(OCCn2cc(C(=O)c3ccco3)c3ccccc32)cc1C`, the “activation” value is inactive: -12.4%.

Take `Cc1ccc(NC(=O)c2cnc(N3CCCCC3)c3ccccc23)cc1Cl`: the “activation” value is inactive: -10.3%.

Take `O=C(CCCc1nc(-c2ccccc2)no1)Nc1cc(C(F)(F)F)cc(C(F)(F)F)c1`: the “activation” value was inactive: -7.58%.

For the compound `COc1ccc(NC(=O)COc2ccc(S(=O)(=O)NC3CCCCC3)cc2)c(OC)c1`, the “activation” value is inactive: -10.3%.

`COc1ccc(-c2nc3nc(C)cc(Nc4cccc(C(F)(F)F)c4)n3n2)cc1`: the “activation” value was inactive: -24.5%.

With `Cc1ccc(CNC(=O)Cn2cc(S(=O)(=O)Cc3cccc(Cl)c3)c3ccccc32)cc1`, the “activation” value is inactive: -2.29%.

Regarding `Cc1sc(-n2cccc2)c(C(C)NC(=O)Nc2ccccc2Cl)c1C` (stereo not given), the “activation” value was inactive: -3.7%.

For `CCOc1ccc(NC(=O)c2cc(S(=O)(=O)N3CCCC3)c[nH]2)cc1`, the “activation” value was inactive: -20.7%.

With `CC1=C(C(=O)Nc2ccccc2C)C(c2ccco2)n2ncnc2N1` (stereo not given), the “activation” value is inactive: -17.3%.

Regarding `Cc1noc(Cn2c(=O)c3ccccc3n(CC(=O)Nc3ccc(F)cc3F)c2=O)n1`, the “activation” value was inactive: 25.6%.

With `Cc1cc(C)c(Cn2c3ccccc3c3cnn(CC(=O)NCc4ccc(Cl)cc4)c(=O)c32)c(C)c1`, the “activation” value is inactive: -5.2%.

For the compound `O=C(Nc1nnc(S(=O)(=O)N2CCCCC2)s1)c1ccc(F)cc1`, the “activation” value was inactive: -21.9%.

As for `CCOc1ccc(CCNC(=O)c2ccc3c(c2)N(Cc2ccccc2)C(=O)c2ccccc2S3=O)cc1OCC` (stereo not given), the “activation” value is inactive: -7.56%.

As for `COc1ccc(-c2c(C#N)c(SCC(=O)Nc3ccc(Br)cc3)nc(C)c2C(=O)Nc2ccccc2)cc1`, the “activation” value was inactive: -18.7%.

Consider `O=C(CN(c1cc(C(F)(F)F)ccc1Cl)S(=O)(=O)c1ccccc1)NCCc1ccccc1`, for which the “activation” value was inactive: -6.35%.

For `COC(=O)c1ccccc1NC(=O)c1cc2c(s1)-c1ccccc1OC2`, the “activation” value is inactive: -10.2%.

As for `CC1=C(C(=O)N2CCCCC2)C(c2cccc(Cl)c2)n2c(nc3ccccc32)N1` (stereo not given), the “activation” value is inactive: -41.9%.

For the compound `Cc1cc(C)c(S(=O)(=O)NCCc2cc3ccc(C)cc3[nH]c2=O)c(C)c1`, the “activation” value is inactive: -10.8%.

Turning to `O=C(CSc1nc(-c2ccccc2)c2ccccc2n1)Nc1ccc(F)cc1`, the “activation” value was inactive: -12.2%.

Regarding `Cc1nn2c(=O)cc(COC(=O)c3ccc(NC(=O)COc4ccc(Cl)cc4)cc3)nc2s1`, the “activation” value was inactive: -11.9%.

For `COc1ccc(OC)c(CNC(=O)c2cc3ccc4cccnc4c3[nH]2)c1`, the “activation” value was inactive: -11.2%.

As for `CC(C)(C)OC(=O)N1CCC(c2nnc(SCc3ccccc3F)o2)CC1`, the “activation” value is inactive: -25.9%.

`O=C(Cn1nnc2sc(-c3ccccc3)cc2c1=O)Nc1cccc(C(F)(F)F)c1`: the “activation” value is inactive: -7%.

On to `CCOc1ccc(CCNc2ncnc3onc(-c4ccc(Cl)cc4)c23)cc1`, for which the “activation” value was inactive: -23%.

Take `COc1ccc(C)cc1NC(=O)C(=O)NCCc1csc2nc(-c3ccccc3F)nn12`: the “activation” value is inactive: 1.35%.

`O=c1c2oc3ccccc3c2n(Cc2ccccc2)c(=O)n1Cc1ccco1`: the “activation” value was inactive: -4.61%.

Consider `CC1CCN(S(=O)(=O)c2ccc3nc(NCc4ccc(F)cc4)ccc3c2)CC1`, for which the “activation” value is inactive: -16.1%.

With `CCn1nnc2cc(C(=O)Nc3ccc(C)cc3Br)ccc21`, the “activation” value was inactive: 0.811%.

With `Cc1ccccc1Nc1c(-c2c[nH]c3ccccc23)nc2ccccn12`, the “activation” value is inactive: -2.78%.
